Test results published in PubChem BioAssay AID1961 (Sanford-Burnham Center for Chemical Genomics, 2009).
The whole screen tested about 290,000 compounds, of which about 140 (0.048%) were called active. Inconclusive means that the source gave no clear call. Such entries were picked first, then a sample of the others.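 How the source made its calls: active means activation above 40% with more than 50 cells counted in the well; inconclusive means wells holding fewer than 50 cells, flagged as toxic or sparse; inactive means the rest.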

target: G-protein coupled receptor 55 (Homo sapiens) (UniProt Q9Y2T6); assay: selective activators of receptor GPR55 – imaging, U2OS cells, beta-arrestin-GFP redistribution, primary screen (AID 1961); conditions: at 10 µM, active compounds read high;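 further: U2OS osteosarcoma cells stably expressing GPR55 and beta-arrestin-GFP; plate controls were DMSO negative control for no effect and LPI positive control for full effect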
UniProt Q9Y2T6, sequence (Q9Y2T6 whole entry, looked up): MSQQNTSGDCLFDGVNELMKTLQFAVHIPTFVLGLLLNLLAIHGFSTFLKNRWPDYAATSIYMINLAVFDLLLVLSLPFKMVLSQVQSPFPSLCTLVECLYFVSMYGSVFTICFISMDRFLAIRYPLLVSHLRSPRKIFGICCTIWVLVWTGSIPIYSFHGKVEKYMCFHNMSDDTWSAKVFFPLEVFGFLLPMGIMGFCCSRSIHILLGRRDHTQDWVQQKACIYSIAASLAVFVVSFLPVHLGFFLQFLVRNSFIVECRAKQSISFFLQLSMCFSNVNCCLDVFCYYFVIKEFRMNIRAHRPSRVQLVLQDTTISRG

Compound	activation
CC1(C(=O)OCC(=O)N2c3ccccc3Sc3ccccc32)CC1(Cl)Cl (stereo not given)	inconclusive: -0.1%
CCN(CC)S(=O)(=O)c1cccc(C(=O)c2c(C)cc3ccccn23)c1	inconclusive: -0.2%
O=C(COC(=O)Cc1ccccc1F)Nc1cc(S(=O)(=O)N2CCOCC2)ccc1N1CCCC1	inconclusive: -0.1%
CCCCc1ccc(C2C(C#N)=C(N)SC(N)=C2C#N)s1	inactive: 0.2%
CCN1CCCC1CNCc1cc(OC)c(OC)c(OC)c1 (stereo not given)	inactive: -0.1%
O=C(Nc1ccccc1)c1ccc(-c2ccc([N+](=O)[O-])cc2)o1	inconclusive: 0%
COC(=O)c1ccc(Oc2nc(Nc3ccc(F)cc3)nc(N3CCCC3)n2)cc1	inconclusive: 3.4%
CCOCCCNc1nc2c(C)cccn2c(=O)c1/C=C1\SC(=S)N(C(C)CC)C1=O (stereo not given)	active: 69.7%
FC(F)(F)c1cc(C(F)(F)F)c2ccc(N/N=C/c3ccccc3)nc2n1	inactive: -0.3%
COc1cc(/C=C(\C#N)c2ccccn2)ccc1OCc1ccccc1	inconclusive: -0.1%
CCOc1ccc(-n2c(O)c(/C=N/NC(=O)C3COc4ccccc4O3)c3ccccc3c2=O)cc1 (stereo not given)	inconclusive: -0.1%
COc1cc2c3nnc(-c4ccc(F)cc4)c-3cn(Cc3ccc(F)cc3)c2cc1OC	inactive: 16.9%
CC(=O)c1sc(NC(=O)COc2ccc(Br)cc2)nc1C	inconclusive: -0.1%
O=C(CCNC(=O)c1ccccc1Cl)Nc1cc(C(F)(F)F)ccc1Cl	inconclusive: -0.2%
CC(C)(C)C1=CC(=O)C(=O)C(C(C)(C)C)=C1	active: 138%
O=C(CN1C(=O)S/C(=C/c2cccn2-c2ccc(O)cc2)C1=O)N1CCCC1	inconclusive: 0%
COc1ccc(/C=C/C(=O)c2ccncc2)c2ccccc12	inconclusive: -0.2%
COc1cc(/C=C(\NC(=O)c2ccccc2)C(=O)NCC(=O)O)c([N+](=O)[O-])cc1OC	inactive: -0.1%
Brc1ccc(-c2nnc(-c3ccc4c(c3)OCO4)o2)o1	inconclusive: 7.8%
Cc1ccc(N(C(=O)CNC(=O)c2ccco2)C(C(=O)NC2CCCCC2)c2cccnc2)cc1F (stereo not given)	inconclusive: 0%
